{
  "source": "PubChem BioAssay AID624417",
  "about": "(National Center for Advancing Translational Sciences (NCATS), 2012)",
  "note": "Several values for one entry are separate records, joined by “and”; a condition that tells them apart may be missing. Equal entries are not always repeated. The campaign covered roughly 410,000 compounds. About 6,400 (1.6%) were called active. This list was built around the results that the source calls inconclusive (neither active nor inactive); the mix of calls is not that of the screen. The call rests on the fitted dose curve; in most records, active means well fitted inhibition curve with a large enough effect; inconclusive means small, poorly fitted or top-dose-only effect; inactive means no such curve, though single readings can be large or run the other way. Where the call is inconclusive, the potency comes from a doubtful curve fit. On the % scale 0 is the no-effect control and ±100 the full control effect; potency means the concentration at half of the fitted maximal effect; tags describe the fitted curve by direction and shape.",
  "data": [
    {"biological_target": "Glucagon-like peptide 1 receptor (Homo sapiens) (UniProt P43220)", "sequence (P43220 whole entry, looked up)": "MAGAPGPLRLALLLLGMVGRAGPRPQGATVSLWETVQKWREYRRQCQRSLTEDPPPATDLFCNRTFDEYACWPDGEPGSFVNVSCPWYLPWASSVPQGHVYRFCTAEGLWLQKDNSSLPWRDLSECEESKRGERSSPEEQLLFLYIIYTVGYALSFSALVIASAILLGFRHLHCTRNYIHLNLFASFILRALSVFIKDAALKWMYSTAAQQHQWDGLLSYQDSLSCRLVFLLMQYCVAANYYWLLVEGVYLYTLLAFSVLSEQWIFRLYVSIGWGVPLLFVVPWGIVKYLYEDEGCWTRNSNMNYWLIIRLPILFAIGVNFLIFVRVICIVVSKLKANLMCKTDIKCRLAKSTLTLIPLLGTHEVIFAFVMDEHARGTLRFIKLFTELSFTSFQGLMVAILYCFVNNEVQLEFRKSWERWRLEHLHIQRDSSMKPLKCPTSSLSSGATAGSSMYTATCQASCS", "assay": "qHTS of GLP-1 Receptor Inverse Agonists (Inhibition Mode); further: nearly all actives have a fitted effect of over 55% in size", "details": "HEK293 GLP-1R CRE-luciferase, luminescence, 24 h, GLP-1R form is constitutively active; activity change, negative = inhibition: at 38.3 µM (top of the series) unless noted", "how_it_was_run": "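Using stably transfected HEK293 (constitutively active GLP-1R, cAMP-luciferase reporter), compounds were incubated 24 hr and luciferase measured by luminescence.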", "values": [
      {"smiles": "COc1ccccc1N1CCN(C(=O)c2cc3c(s2)-c2ccccc2OC3)CC1", "Potency": "inconclusive: 12.6 µM [inhibitor, single point] and inconclusive: 10 µM [inhibitor, partial curve, poor fit]"},
      {"smiles": "CCCCn1c(N)c(Br)c(=O)[nH]c1=O", "activity change, negative = inhibition": "inactive: 38.5%"},
      {"smiles": "Cc1ccc(S(=O)(=O)Nc2cc(-c3ccc(Cl)cc3)nn2C)cc1", "Potency": "inconclusive: 31.6 µM [inhibitor, partial curve, poor fit]"},
      {"smiles": "CC(C)(C)n1nnnc1CN1C2CCC1CC(NC(=O)Nc1ccccc1)C2", "note": "(stereo not given)", "Potency": "inconclusive: 31.6 µM [inhibitor, single point]"},
      {"smiles": "COc1ccccc1-c1cc2ccccc2[nH]1", "activity change, negative = inhibition": "inactive: -27.7%"},
      {"smiles": "Cc1cccc(OCCn2cnc(Cl)c2Cl)c1", "Potency": "inconclusive: 15.8 µM [inhibitor, single point]"},
      {"smiles": "COC(=O)c1c(-c2ccc(SC)cc2)sc2ccc(OC)cc12", "Potency": "inconclusive: 28.2 µM [inhibitor, single point]"},
      {"smiles": "CC(C)C(C(=O)NCc1ccco1)N(C(=O)CNS(=O)(=O)c1ccccc1)C1CCCC1", "note": "(stereo not given)", "Potency": "inconclusive: 4.47 µM [inhibitor, partial curve, poor fit]"},
      {"smiles": "CC(=O)c1ccc2c(c1)C1C=CCC1C(C(=O)O)N2", "note": "(stereo not given)", "activity change, negative = inhibition": "inactive: -10.7%"},
      {"smiles": "CCC(C)C(=O)Nc1ccccc1N1CCN(c2ccc(F)cc2)CC1", "note": "(stereo not given)", "Potency": "inconclusive: 20 µM [inhibitor, single point]"},
      {"smiles": "COc1ccc(C2c3[nH]c4ccccc4c3CCN2CCCn2cccn2)c(F)c1", "note": "(stereo not given)", "Potency": "inconclusive: 15.8 µM [inhibitor, single point]"},
      {"smiles": "CCOC(=O)C1(Cc2ccc(OC)cc2)CCN(C(=O)c2cc(C)nn2C)CC1", "Potency": "inconclusive: 28.2 µM [inhibitor, single point]"},
      {"smiles": "COc1ccc(OC)c(NC(=O)c2ccc3nc(C(C)C)oc3c2)c1", "activity change, negative = inhibition": "inactive: 5.55%"},
      {"smiles": "Cc1cc(OCCCN2CCN(Cc3ccccc3)CC2)ccc1[N+](=O)[O-]", "Potency": "inconclusive: 28.2 µM [inhibitor, single point]"},
      {"smiles": "Cc1cc(C)cc(OCC(=O)NC(C)c2ccccc2)c1", "note": "(stereo not given)", "Potency": "inconclusive: 10 µM [inhibitor, single point]"},
      {"smiles": "CC1(C)CC(CNCCC(c2ccc(F)cc2)c2ccco2)CCO1", "note": "(stereo not given)", "Potency": "inconclusive: 28.2 µM [inhibitor, single point]"},
      {"smiles": "CCC(=O)Nc1ccc(S(=O)(=O)N2CCc3ccccc3C2)cc1", "Potency": "inconclusive: 28.2 µM [inhibitor, single point]"},
      {"smiles": "COc1ccccc1CNC(=O)c1cc(S(=O)(=O)N2CCCCCC2)cn1C", "Potency": "inconclusive: 22.4 µM [inhibitor, partial curve, poor fit]"},
      {"smiles": "Fc1ccccc1-n1ncc2c1ncn1nc(COc3ccc(Cl)cc3)nc21", "activity change, negative = inhibition": "inactive: 7.02%"},
      {"smiles": "O=C(COC(=O)C1CC2C=CC1C2)Nc1c(Br)cc([N+](=O)[O-])cc1Br", "note": "(stereo not given)", "activity change, negative = inhibition": "inactive: -27.3%"},
      {"smiles": "Clc1ccccc1CN(Cc1ccccc1)C(c1cccs1)c1nnnn1C1CCCC1", "note": "(stereo not given)", "Potency": "inconclusive: 14.1 µM [inhibitor, single point]"},
      {"smiles": "Cc1cc(Br)ccc1NC(=O)CN1C(=O)C2C3CC(c4ccccc4)C(C3)C2C1=O", "note": "(stereo not given)", "Potency": "active: 10 µM"},
      {"smiles": "CCC1CCCCN1C(=O)CSc1n[nH]c(-c2ccccc2)n1", "note": "(stereo not given)", "activity change, negative = inhibition": "inactive: 11.5%"},
      {"smiles": "CCCN1C(C)C(C(=O)OCC)=CN(Cc2cccc(I)c2)S1(=O)=O", "note": "(stereo not given)", "Potency": "inconclusive: 11.2 µM [inhibitor, partial curve, poor fit]"},
      {"smiles": "CC(=O)Nc1ccc(Nc2nc3ccc(Cl)cc3n3cnnc23)cc1", "activity change, negative = inhibition": "inactive: 7.56%"},
      {"smiles": "C=CCC(NCc1ccccc1)c1ccc(Cl)cc1", "note": "(stereo not given)", "Potency": "inconclusive: 28.2 µM [inhibitor, single point]"},
      {"smiles": "O=C(Nc1ccc2c(c1)OCO2)C(c1ccc(Cl)cc1)N1CCC2(CC1)OCCO2", "note": "(stereo not given)", "Potency": "inconclusive: 11.2 µM [inhibitor, partial curve, poor fit]"},
      {"smiles": "CCOc1ccccc1CNC(=O)C1CCN(c2nnc(C)c3c(C)n(-c4ccc(C)cc4)nc23)CC1", "Potency": "inactive"},
      {"smiles": "COc1ccc(C(=O)Nc2ccc(S(=O)(=O)N(C)c3ccccc3)cc2)cc1", "Potency": "inconclusive: 6.31 µM [inhibitor, partial curve, poor fit]"},
      {"smiles": "O=C(CC1(O)C(=O)N(CCc2ccccc2)c2ccc(Br)cc21)c1ccccc1", "note": "(stereo not given)", "Potency": "inconclusive: 11.2 µM [inhibitor, single point]"},
      {"smiles": "COc1ccc(C(=O)N/C(=C/c2cccnc2)C(=O)N2CCN(C)CC2)cc1OC", "activity change, negative = inhibition": "inactive: 4.21%"},
      {"smiles": "Cc1ccc(NC(=O)c2cc(C)on2)cc1", "activity change, negative = inhibition": "inactive: -8.22%"},
      {"smiles": "C=CCn1c(SCC)nc2sc3c(c2c1=O)CCc1ccccc1-3", "Potency": "inconclusive: 5.62 µM [inhibitor, full curve, poor fit]"},
      {"smiles": "COc1ccccc1CNC(=O)CN1C(=O)NC2(CCCCCC2)C1=O", "activity change, negative = inhibition": "inactive: 4.08%"},
      {"smiles": "O=C(COC(=O)c1ccccc1C(=O)c1ccc(Cl)c([N+](=O)[O-])c1)NC1CC1", "Potency": "inconclusive: 28.2 µM [inhibitor, single point]"},
      {"smiles": "COc1ccc2cc(C(=O)NCc3ccccc3)[nH]c2c1", "activity change, negative = inhibition": "inactive: -7.45%"},
      {"smiles": "CCOC(=O)c1cccc(NC(=O)CC2C(=O)N(c3ccccc3)C(=O)N2Cc2ccco2)c1", "note": "(stereo not given)", "activity change, negative = inhibition": "inactive: -7.33%"},
      {"smiles": "Cc1ccc(NC(=O)CN2C(=O)COc3ccc(S(=O)(=O)N4CCCC4)cc32)c(C)c1", "Potency": "inconclusive: 22.4 µM [inhibitor, partial curve, poor fit]"},
      {"smiles": "COc1ccc(-c2cc(C(F)(F)F)n3nc(C(=O)OC(C)C)cc3n2)cc1", "activity change, negative = inhibition": "inactive: 26.9%"},
      {"smiles": "COc1cccc(/C=N/Nc2nc3ccccc3[nH]2)c1O", "Potency": "inconclusive: 0.501 µM [inhibitor, full curve, poor fit]"},
      {"smiles": "Cc1cc2c(n1-c1ccc(C(=O)NCCc3ccc(Cl)cc3)cc1)CCC(C)C2", "note": "(stereo not given)", "activity change, negative = inhibition": "inactive: -15.4%"},
      {"smiles": "CN1CCN(c2nc(-c3cccs3)cc(C(F)(F)F)n2)CC1", "Potency": "inconclusive: 14.1 µM [inhibitor, single point]"},
      {"smiles": "CN(CC(=O)Nc1ccccc1Br)C(=O)c1n[nH]c2ccccc12", "Potency": "inconclusive: 31.6 µM [inhibitor, single point]"},
      {"smiles": "CCNC(=S)Nc1ccc2c(c1)c(=O)n(C)n2Cc1cccc(C(F)(F)F)c1", "activity change, negative = inhibition": "inactive: 15.3%"},
      {"smiles": "CC1CCC2(CC1)NC(=O)N(CC(=O)Nc1cccc(S(=O)(=O)N(C)c3ccccc3)c1)C2=O", "note": "(stereo not given)", "Potency": "inconclusive: 28.2 µM [inhibitor, single point]"},
      {"smiles": "Cc1cccc(N=N/C(=C\\O)C(=O)c2cccs2)c1", "Potency": "inconclusive: 8.91 µM [inhibitor, partial curve, poor fit]"},
      {"smiles": "CCOC(=O)c1ccc(NC(=O)Nc2ccon2)cc1", "Potency": "inconclusive: 3.16 µM [inhibitor, full curve, poor fit]"},
      {"smiles": "O=C(Nc1cc(C(F)(F)F)ccc1-n1cncn1)c1cn2ccccc2n1", "activity change, negative = inhibition": "inactive: 23.5%"},
      {"smiles": "CC1(C)CC(=O)C2=C(C1)OC(N)=C(C#N)C2c1cn(-c2ccccc2)nc1-c1ccc(F)cc1", "note": "(stereo not given)", "Potency": "inconclusive: 17.8 µM [inhibitor, single point]"},
      {"smiles": "CN(C)CCCN1c2ccccc2Sc2ccc(Cl)cc21", "Potency": "inconclusive: 10 µM [inhibitor, single point]"},
      {"smiles": "Cc1cc(C)cc(OC(=O)c2cc(-c3ccc4c(c3)OCCO4)on2)c1", "activity change, negative = inhibition": "inactive: -21.9%"},
      {"smiles": "C[C@H]1CN([C@@H](C)CO)S(=O)(=O)c2ccc(Br)cc2O[C@@H]1CN(C)Cc1ccccc1", "Potency": "inconclusive: 28.2 µM [inhibitor, single point]"},
      {"smiles": "COc1ccc(Cl)cc1NC(=O)Nc1ccc(C(=O)N2CCOCC2)cc1", "Potency": "inconclusive: 10 µM [inhibitor, partial curve, poor fit]"},
      {"smiles": "Cc1cc(C(=O)N2CCCC(N3CCN(c4cccc(C(F)(F)F)c4)CC3)C2)n[nH]1", "note": "(stereo not given)", "Potency": "inconclusive: 11.2 µM [inhibitor, partial curve, poor fit]"},
      {"smiles": "CC(C)Nc1ccc(C(CC(N)=O)NC(=O)Cc2ccc(Cl)cc2)cc1[N+](=O)[O-]", "note": "(stereo not given)", "Potency": "inconclusive: 28.2 µM [inhibitor, single point]"},
      {"smiles": "COc1ccc(Cc2c(-c3ccc(C)cc3)nc3c(C)cc(Br)cn23)c(C)c1", "Potency": "inconclusive: 14.1 µM [inhibitor, partial curve, poor fit]"},
      {"smiles": "Cc1cc2oc(=O)cc(CN(C)Cc3cccc(F)c3)c2cc1Cl", "Potency": "inconclusive: 17.8 µM [inhibitor, single point]"},
      {"smiles": "CCc1ccc(NC(=O)NCCN2CCc3ccccc3C2)cc1", "Potency": "inconclusive: 12.6 µM [inhibitor, partial curve, poor fit]"},
      {"smiles": "O=C(O)c1cccc(COc2cccc3ccccc23)c1", "Potency": "inconclusive: 7.94 µM [inhibitor, partial curve, poor fit]"},
      {"smiles": "Cc1ccc(CN(C)C(=O)c2cc(COc3ccc(F)cc3Cl)on2)o1", "Potency": "inconclusive: 28.2 µM [inhibitor, single point]"},
      {"smiles": "CC1CC(C)CN(S(=O)(=O)c2ccc(C(=O)N(c3ccccn3)C3CCCCC3)cc2)C1", "note": "(stereo not given)", "Potency": "inconclusive: 28.2 µM [inhibitor, single point]"},
      {"smiles": "CCOC(=O)Cc1csc(NC(=O)C(CC(C)C)NC(=O)C2CCCCC2)n1", "note": "(stereo not given)", "Potency": "inconclusive: 31.6 µM [inhibitor, single point]"},
      {"smiles": "COc1ccc(NC(=S)N=Nc2c(O)[nH]c3ccccc23)cc1", "Potency": "inconclusive: 7.08 µM [inhibitor, partial curve, poor fit]"},
      {"smiles": "C[C@H]1CN([C@@H](C)CO)C(=O)c2cccc(NC(=O)Nc3ccc(C(F)(F)F)cc3)c2O[C@@H]1CN(C)Cc1ccc(Cl)c(Cl)c1", "Potency": "inconclusive: 10 µM [inhibitor, partial curve, poor fit]"},
      {"smiles": "O=C(NC1CCCC1)C(c1ccsc1)N(Cc1ccccc1)C(=O)Cc1cccs1", "note": "(stereo not given)", "Potency": "inconclusive: 10 µM [inhibitor, partial curve, poor fit]"}
    ]}
  ]
}
